{"source": "PubChem BioAssay AID485294", "about": "(National Center for Advancing Translational Sciences (NCATS), 2010)", "note": "The whole screen tested about 370,000 compounds, of which about 150 (0.041%) were called active. Inconclusive results, whose numbers are uncertain, are shown with a selection of clear calls. Calls come from the whole dose curve; as a rule, active = well fitted inhibition curve with a large enough effect; inconclusive = small, poorly fitted or top-dose-only effect; inactive = flat fitted curve, though single readings scatter. No potency is given beside an inconclusive call; the fits are too rough. Peptide text beside a SMILES is read from it. * marks the point of attachment. Cbz = O=C(OCc1ccccc1)*", "data": [{"molecular_target": "Beta-lactamase (Escherichia coli (strain K12)) (UniProt P00811)", "sequence (P00811 whole entry, looked up)": "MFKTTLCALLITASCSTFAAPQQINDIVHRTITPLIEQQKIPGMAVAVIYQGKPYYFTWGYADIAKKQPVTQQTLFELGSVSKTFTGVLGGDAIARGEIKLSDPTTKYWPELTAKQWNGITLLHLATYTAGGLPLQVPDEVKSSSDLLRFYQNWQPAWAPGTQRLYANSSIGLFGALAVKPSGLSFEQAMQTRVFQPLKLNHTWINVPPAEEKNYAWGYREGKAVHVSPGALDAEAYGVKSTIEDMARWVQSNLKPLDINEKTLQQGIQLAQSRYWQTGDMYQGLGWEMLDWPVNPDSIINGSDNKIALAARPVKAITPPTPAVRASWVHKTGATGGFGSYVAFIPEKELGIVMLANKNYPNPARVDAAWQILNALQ", "assay": "qHTS Inhibitors of AmpC Beta-Lactamase (assay with detergent); note: nearly all actives have a fitted effect of over 25% in size; note: potency is the fitted concentration of half-maximal effect; tags give direction and shape of the fitted curve", "conditions": "AmpC hydrolysis of nitrocefin, absorbance 480 nm, 0.01% Triton; series mostly up to 114 µM", "procedure,_shortened": "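20 mM phosphate pH 7.0 + 0.01% (detergent screen) or 0.0001% Triton X-100; 5.3 nM AmpC reagent; cpd preinc 15 min RT; nitrocefin (800 uM stock) to start; A480 q20 s × 4 min; Activity was normalised to no-enzyme and no-compound control wells.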", "values": [{"smiles": "Cc1ccc(S(=O)(=O)N2CCC(C(=O)OCC(=O)Nc3cc(S(C)(=O)=O)ccc3Cl)CC2)cc1C", "Potency": "inconclusive [inhibitor, partial curve]"}, {"smiles": "Cc1ccc(C)c(Oc2ccc(S(=O)(=O)N3CCN(C)CC3)cn2)c1", "Potency": "inactive"}, {"smiles": "O=S(=O)(Nc1ccncc1)c1ccccc1", "Potency": "inconclusive [inhibitor, full curve, poor fit]"}, {"smiles": "Cc1ccc(Cn2ccc(NC(=O)c3cc(-c4ccco4)on3)n2)cc1", "Potency": "inconclusive [inhibitor, full curve, poor fit]"}, {"smiles": "C=CCN(c1ccc(C(=O)NCCc2ccccc2)cc1)S(C)(=O)=O", "Potency": "inactive"}, {"smiles": "COc1ccc(N2C(=O)c3ccccc3NC2c2ccc(OC)c(CSc3ccccn3)c2)cc1", "note": "(configuration not stated)", "Potency": "inconclusive [inhibitor, full curve]"}, {"smiles": "O=C(CCN1C(=O)COc2ccccc21)NCCN1CCN(c2ccccc2F)CC1", "Potency": "inconclusive [inhibitor, partial curve, poor fit]"}, {"smiles": "COC(=O)c1nc2n(n1)C(c1cc(OC)ccc1OC)C(C(=O)OC1CCCCC1)=C(C)N2", "note": "(configuration not stated)", "Potency": "inconclusive [inhibitor, partial curve]"}, {"smiles": "CCN(CC)CCn1c(NCc2nc3ccccc3n2Cc2ccccc2)nc2ccccc21", "Potency": "inconclusive [inhibitor, full curve, poor fit]"}, {"smiles": "CCOC(=O)c1ccc(NC(=O)c2ccccc2)cc1", "Potency": "inconclusive [inhibitor, full curve]"}, {"smiles": "CCCn1c(=O)n(CC(=O)NCC2CCCO2)c(=O)c2c3c(sc21)COC(C)(C)C3", "note": "(configuration not stated)", "Potency": "inactive"}, {"smiles": "CC(=O)Nc1c(-c2ccccc2)c2cc(Br)ccc2[nH]c1=O", "Potency": "inactive"}, {"smiles": "CSc1ccccc1NC(=O)COC(=O)Cc1cccs1", "Potency": "inconclusive [inhibitor, full curve, poor fit]"}, {"smiles": "COc1cc(Cn2nnc3ccccc32)ccc1O", "Potency": "inconclusive [inhibitor, full curve]"}, {"smiles": "Cc1ccc(S(=O)(=O)/C(C#N)=C/c2c(N3CCN(C)CC3)nc3ccccn3c2=O)cc1", "Potency": "inconclusive [inhibitor, partial curve, poor fit]"}, {"smiles": "O=C(Cn1nnc(-c2ccc(F)cc2)n1)OCC(=O)c1ccccc1", "Potency": "inconclusive [inhibitor, single point]"}, {"smiles": "CCOc1ccc(OCC)c(S(=O)(=O)n2cnc(C)c2)c1", "Potency": "inconclusive [inhibitor, full curve]"}, {"smiles": "CC(C)C(NC(=O)OCc1ccccc1)C(=O)NC(Cc1ccc(O)cc1)C(=O)O", "note": "(stereo not drawn) (Cbz-Val-Tyr-OH; configuration not given here)", "Potency": "inconclusive [inhibitor, partial curve, poor fit]"}, {"smiles": "O=C(CSc1nnc2ccc(-c3ccncc3)nn12)Nc1ccc(F)cc1", "Potency": "inconclusive [inhibitor, single point]"}, {"smiles": "COc1ccc2c(-c3ccccc3)cc(=O)[nH]c2c1", "Potency": "inactive"}, {"smiles": "N#Cc1cc(N2CCCCC2)c([N+](=O)[O-])cc1C#N", "Potency": "inconclusive [inhibitor, partial curve]"}, {"smiles": "Nc1nc(CSc2ccccc2)nc(N2CCCCC2)n1", "Potency": "inconclusive [inhibitor, full curve, poor fit]"}, {"smiles": "Cc1cnn(C(=S)NCC2CCCO2)c1", "note": "(configuration not stated)", "Potency": "inconclusive [inhibitor, full curve, poor fit]"}, {"smiles": "NC(=O)c1c(NC(=O)CN2C(=O)CCC2=O)sc2c1CCCCC2", "Potency": "inactive"}, {"smiles": "Clc1ccccc1-c1ccc2ncnc(NCc3cccs3)c2c1", "Potency": "inconclusive [inhibitor, full curve, poor fit]"}, {"smiles": "O=C(Nc1ccc(Oc2ccccc2)cc1)C1CCCN(c2ncccn2)C1", "note": "(configuration not stated)", "Potency": "inconclusive [inhibitor, partial curve, poor fit]"}, {"smiles": "Cc1ccc(OCc2nn3c(-c4ccco4)nnc3s2)cc1", "Potency": "inconclusive [inhibitor, full curve, poor fit]"}, {"smiles": "COc1ccc(OC)c(CNC(=O)c2ccc(-c3nc(CSc4ccccc4)c(C)o3)cc2)c1", "Potency": "inactive"}, {"smiles": "CCN(CC)CCN1C(=O)C(=O)/C(=C(/O)c2cnn(-c3ccccc3)c2C)C1c1cccnc1", "note": "(configuration not stated)", "Potency": "inconclusive [inhibitor, full curve, poor fit]"}, {"smiles": "CCN1C(=O)c2cccc3c(S(=O)(=O)NC(Cc4c[nH]c5ccccc45)C(=O)O)ccc1c23", "note": "(configuration not stated)", "Potency": "inconclusive [inhibitor, full curve]"}, {"smiles": "CCSc1ncc(/C=N/Nc2ccc(F)cc2)n1C", "Potency": "inconclusive [inhibitor, single point]"}, {"smiles": "COc1ccc(/C(C)=N\\Nc2nc(-c3ccccc3)cc(=O)[nH]2)cc1", "Potency": "inactive"}, {"smiles": "O=C(CCCCCN1C(=O)[C@@H]2Cc3ccccc3CN2C1=O)N[C@@H](Cc1ccc(O)cc1)C(=O)O", "Potency": "inconclusive [inhibitor, full curve]"}, {"smiles": "CC12CCC(=O)N1C(C(=O)NNC(=O)c1ccccc1F)CS2", "note": "(configuration not stated)", "Potency": "inactive"}, {"smiles": "CC1=C(C(=O)O)N2C(=O)C(NC(=O)c3nn(C)cc3Cl)C2SC1", "note": "(configuration not stated)", "Potency": "inconclusive [inhibitor, partial curve, poor fit]"}, {"smiles": "C[n+]1cccc2ccc3c(c21)OC(N)=C(C#N)C3c1ccccc1", "note": "(configuration not stated)", "Potency": "inactive"}, {"smiles": "COc1ccccc1N(O)C1CC(=O)N(c2ccc(F)cc2)C1=O", "note": "(configuration not stated)", "Potency": "inactive"}, {"smiles": "Cc1ccccc1C(=O)NNC1CC(=O)N(c2ccc3c(c2)OCCO3)C1=O", "note": "(configuration not stated)", "Potency": "inconclusive [inhibitor, partial curve, poor fit]"}, {"smiles": "COc1ccc(Nc2ncnc3sc(C)cc23)cc1", "Potency": "inconclusive [inhibitor, full curve]"}, {"smiles": "CCCOc1ccc(-c2c(C(=O)N/N=C(\\C)c3cccs3)nnn2-c2nonc2N)cc1", "Potency": "inactive"}, {"smiles": "CCCCN(C)Cc1c(O)ccc2c(=O)c(-c3ccccc3OC)coc12", "Potency": "inconclusive [inhibitor, partial curve, poor fit]"}, {"smiles": "Cc1cnn(-c2cc(N/N=C/c3cccc(F)c3)ncn2)c1", "Potency": "inconclusive [inhibitor, full curve, poor fit]"}]}]}
